Some of the results follow.
The sequences below were run on PF3D7_0420300 AP2 domain 1 (GST-tagged) (assay: gcPBM binding intensity (ln(normalized median fluorescence intensity)); higher = stronger DNA binding).
Method in brief: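 Binding intensity is the highest Masliner-normalised natural-log median intensity over replicate spots in either probe orientation. To obtain it, GST-tagged P. falciparum DNA-binding domains made in E. coli were incubated for 1 h on an Agilent 4 × 180k array of primer-extended double-stranded 36-bp intergenic genomic probes plus negative controls. Detection used Alexa488 anti-GST antibody with scanning at 488 nm.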

Sequence | gcPBM binding intensity (ln)
AAATAATTTATGCATACACACATATATATATATATA [CACACA_site4020] | 9.46
TAGATATATAAATACACACACATACACAAAAAAAAA [CACACA_site7652] | 10
AAATAAATACATAATACATGCATATTTAATATATAG [TGCATGCA_site135] | 9.4
GTACAATCATATACTACATGCAGTTTTTTTTATTGA [TGCATGCA_site230] | 9.49
AATTTTTTTTAATGATGTACTTTTTGAAAATAAACT [XGTACX_site4221] | 8.91
TTTTCTTTTTCTTGTACACACATAATATGGATGAAA [CACACA_site808] | 9.41
ATATATATATATATTTATTCATATATTTTTTGTCTT [TGCATGCA_negctrl_site58] | 9.17
TAAAGAAACGCATCGACGCACACTACAAAATAAAAA [CACACA_site1348] | 9.26
TTTTTATTTTTTCAGTGTACATTTAAATTATCTTAT [XGTACX_site3905] | 9.26
AACATATATATAATATGTACATAATATATATAAATG [XGTACX_site1161] | 9.28
ACATATATTTCAAAGTGTACGCACAATTTTTTTTAC [XGTACX_site6166] | 9.24
TTAGTTTCCCAAATATGTACATAAATATAAATCATA [XGTACX_site2746] | 8.95
ATTTCAACAAATATAACACACAATGGATAAGAATAA [CACACA_site1974] | 9.7
TTATTATTTTTTAACACACACATATATATTATATCT [CACACA_site4906] | 9.73
GTAAGAACACTTTTGTGGTTACTTAAAAGTGTATAT [GTGCAC_negctrl_site422] | 9.05
TGCTTATATGTTGTTACACACTAAAATAGTTAGATA [CACACA_site1277] | 9.39
AATACAGTTAGAGAAAGTACACAACTAATATACATA [XGTACX_site8814] | 9.37
AAAGAAGGATAATAATGTACAAGCAAAAAAATAAAA [XGTACX_site466] | 9.61
AATATGTGAATATAATCACACACAATACGGAAACAC [CACACA_site8875] | 10.1
AAATAATTATTTATCACACATATGTATTTATATATA [CACACA_site4589] | 9.31
CTTTTTTTAATGATAACACACATGTTGTGCATAGAC [CACACA_site3270] | 9.32
ATTAACACATTTAAGTGTACATATATAAATATATAT [XGTACX_site7098] | 9.19
TATACATTATTATTATGTACTTAAATATATATTATA [XGTACX_site5173] | 9.07

Sequence | gcPBM binding intensity (ln)
GGAACGTATATTTTCACACACTCTCAAAAGTACAAG [CACACA_site2301] | 9.41
GAAACAAAATTATTTTGTACATATGACTGTAGATAT [XGTACX_site972] | 9.21
ATATAACTCAAGGGCACACATATACCTTTCCTTTTT [CACACA_site4390] | 9.5
TGTGCACGTTCTGTGACACACATTTAAATGTGCTTA [CACACA_site176] | 9.25
ATATATATATATAGTTGTACTTAATTTTATATGTTA [XGTACX_site5256] | 9.4
TGTTGTATATCTCTATATAGCTATATTGTATATATA [TGCATGCA_negctrl_site323] | 9.4
TATATTATTTATTAGACACACATTATTAAAATATTT [CACACA_site4737] | 9.19
AAACTTATAAAAAGTAGTACCATAAAATAATACATA [XGTACX_site6523] | 9.37
TTTTACAAATATTACTGTACACATTTTCATATAATT [XGTACX_site17] | 9.49
CCTTGATATATATAAAGTACATATATATATATATAT [XGTACX_site4325] | 9.01
GTGAAATTATTTCCGTGTACACATAAATATATATTT [XGTACX_site3989] | 9.35
ATTTTGTTATGAAACACACACATATAAATATAAATA [CACACA_site7679] | 9.57
AATACACGCAGACACACACACAAAAAAAAAAAAAAA [CACACA_site6384] | 9.61
AATTGTGCATTATATTGTACACGTGTTGTATATATT [XGTACX_site975] | 9.52
TTGAATATGGTTACATGTACGTATCAATATTTTTTA [XGTACX_site4247] | 9.06
TATATAAAACATGGGTGTACCAACATAAATCATATA [XGTACX_site2320] | 9.52
AAAAAAAAAAATCGCTGTACTTCTAAAGGTGTGTTA [XGTACX_site843] | 9.31
CAAACAAACGGACACACACACACACCCAAAAATGAT [CACACA_site5363] | 10.1
AGTTTTATATAAGCTTGTACTTAATATTATTAAGTA [XGTACX_site5919] | 9.19
ACGGACTTAAAATACACACACACCAAAAAAAAAAAA [CACACA_site7304] | 9.86
TTTGATAAATTATACACACACAATATATATAAAATA [CACACA_site2023] | 9.82
AATAATATATAATAATGTACAAAAAAAAAAAAAAAA [XGTACX_site4158] | 9.06
AAGCTTTGGTGTTATGCATGCAATTAAACTATTAGT [TGCATGCA_site277] | 9.03

Sequence | gcPBM binding intensity (ln)
TTTTATTTTTTAGTAGTACACACTTTTTGTACCTTT [CACACA_site599] | 9.41
AAATAATACCAAATGTGTACTTATTTCACTAATAGA [XGTACX_site7571] | 9.3
GGAATAATAAAATTATGTACATAAGAATCATATACT [XGTACX_site6810] | 9.39
ATATATACTTATATTTGTACACAAAGGTATCTCTAG [XGTACX_site3805] | 9.2
CATATATAAATATGTATGCACTTTAACAAAATGTAT | 9.13
ATTCCACCTTAAAACTGTACTTTCTCAATCTTTTAT [XGTACX_site796] | 9.43
ATATTTATTTATATGTGTACTTATGTTTATATAAAA [XGTACX_site4250] | 9.33
ATTATGTTATATACACGTACGTGTGCTTTATAATTA [XGTACX_site2728] | 9.45
GGAATTATAATAAATGGTACACATAAAAAAAAAAAA [XGTACX_site8343] | 9.27
ATAAAGTAGATATTTTGTACGCAGGTTGTATATATT [XGTACX_site1464] | 9.31
TACTTTACTAATATATATAGGAGAGTATACATGAAA [CACACA_negctrl_site63] | 9.17
TAATAAATAGGACACACACACATATATATATATTAT [CACACA_site4891] | 10.1
TATTTTAATTAATATACACACGCTTATATATATATA [CACACA_site7909] | 9.38
TATTATATATATAACTGTACGTTTATAATATAAAAA [XGTACX_site3778] | 9
TTTCTTTTTTTTTTTTGTACATATTTTAATTATTTT [XGTACX_site8676] | 9.4
TACAAACTATGATGCACACATATATATCTGTATCCA [CACACA_site4809] | 9.44
AGTGTTAAAAATGAGGGTACATATAAAATACAGTTC [XGTACX_site457] | 9.58
ACAGGATTGGTTCAAACACACATATTATATGACTAT [CACACA_site4536] | 9.4
TAATCATTTTAGCTTACACACAAAATTTGGTTATAA [CACACA_site5604] | 9.49
ATGGAATTTTTAGAATATGGATAATGTTACTTAAGT [CACACA_negctrl_site494] | 9.14
AAAAACCATGGGCACACACACATAATATATAATATA [CACACA_site1425] | 10
TATATCGTTAATTATACACACATAAAATTAAACTTT [CACACA_site1274] | 9.39
GTTATATATATATATATATATATATATATTTTTTTT [GTGCAC_negctrl_site597] | 9.03

Sequence | gcPBM binding intensity (ln)
TAAAAAAAGGAAAACATACAATTCTATTTTTCAATA [CACACA_negctrl_site474] | 9.04
AAATTAAAAAAGAATATACACACCAAAACTGTTTGT [CACACA_site958] | 9.43
TATAATAATACTTATTGTACGATTAGCTTAATTCGT [XGTACX_site15] | 9.01
TATATAAATAGATACACACATACATACATACATACA [CACACA_site260] | 9.68
ACCATACATACATACACACACACACGCATATTTATA [CACACA_site7386] | 10.4
TAATTTTAAATATCTTCACACATTATATTTTTATAT [CACACA_site5411] | 9.23
AAGGTGGAAACAATTACACACACACTAATAAAAAAA [CACACA_site9051] | 10
AAGGGTTATTTGATATGTACTTATATATATATATAA [XGTACX_site1659] | 9.26
AAGTACAAATTTAATAAAAATGAAACAAATATGTAT [TGCATGCA_negctrl_site94] | 9.43
AAAGATTGCGATGGTTGTACTTTTCTATATTTTTTT [XGTACX_site3492] | 9.47
CTAAAATACGAACACACACACACATATAAATAAATA [CACACA_site7872] | 10.3
TATACTTCTTATTAAATGAGTAGTATATATTATATA [TGCATGCA_negctrl_site299] | 8.98
CTATTTCATAAACACACACACACAAACAAACATATA [CACACA_site8234] | 10.4
ATTTAAAAAAGAAAGGTGCATTTCAATAATGTAAAA [GTGCAC_site9585] | 9.13
TCATCTTTTATATGTTGTACGTATTTTCATTTATAT [XGTACX_site4855] | 9.55
TTGATATTTTTTTTATGTACACATGTTCATATTTTT [XGTACX_site8095] | 9.43
AAGTAGTGTTAATACTGTACTTATATTTTTTATTAT [XGTACX_site8264] | 9.22
TCACATATTATCTTTACACACTATAAATAAGTTTTA [CACACA_site7335] | 9.41
ATAATTTGATGGTTAACACACATATAGATTATAGAT [CACACA_site7200] | 9.49
TTTTTTTCTTTTTGAGGTACGCATTATTTTATTTGT [XGTACX_site6996] | 9.1

Source: the supplement of paper PMC11417369
